# The other results are listed elsewhere or left out.
# System: PfHDP1 homeodomain (GST-tagged)
# Assay: gcPBM binding intensity (ln(normalized median fluorescence intensity)); higher = stronger DNA binding
# Outline: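 Alexa488 anti-GST antibody, scanned at 488 nm, detected GST-tagged P. falciparum DNA-binding domains that had been expressed in E. coli and incubated for 1 h on an Agilent 4 × 180k array. The array carried primer-extended double-stranded 36-bp intergenic genomic probes and negative controls. Binding intensity is the highest Masliner-normalised natural-log median intensity across replicate spots of either orientation of each probe.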
row,Sequence,gcPBM binding intensity (ln)
1,CTTGTCATTTTGCACACACACATGTATAGGTTATTA [CACACA_site7431],10.9
2,TATATTTATATGATAACACACATAAATTATACATTT [CACACA_site1671],6.21
3,TATAACTATAAAAGTAGTACACATATATATTATATA [XGTACX_site1391],6.39
4,TATATATATATAGACACACACACACCCATATATATA [CACACA_site4117],8.85
5,TTTTTTTAAATATACACACACATTTATACCTATATA [CACACA_site7572],6.73
6,TTCCTAATTGACAACACACACAACAAAAAAGGGATT [CACACA_site1279],7.12
7,AATGGTTTAAAATACTGTACATATATATAAAAGTAA [XGTACX_site6187],6.65
8,AAAATAATAATTAATACATGCATTAATTCTTTTTTT [TGCATGCA_site741],5.93
9,ACTTCATTTTTTTTATGTACACAGAAGATTTACAAA [XGTACX_site4021],6.98
10,AGGAAAATAGAAAAAGCACACATATATTTTGGAATG [CACACA_site8080],6.61
11,ATTTATTTATTTTTTTGTACGAATGTTGCACATATA [XGTACX_site4101],9.71
12,CATATATTATTTAATAGTACATATAAAAGAAAAAAA [XGTACX_site4643],6.54
13,TATATAAATAAATGTGTACACACATTAAAATCAAAC [CACACA_site8733],6.82
14,TATATACATATATATACACACATATATATATTTTAT [CACACA_site3788],6.65
15,ATAATATATACTAAAAGTACATATTATAATAAATTA [XGTACX_site6749],5.86
16,GAAATAATTGTTAAAGGTACACAATGCATATACAAT [XGTACX_site238],7.08
17,ATACATATATATGTGTGTACATATGTGTATACATTT [XGTACX_site6544],6.84
18,TTTTATAAATCTAAACGTATCTAAATGAATAATTAA [GTGCAC_negctrl_site44],5.95
19,ATATGTATTAAGTGTACACATATAATGGGTTTGTTA [CACACA_site5682],6.94

row,Sequence,gcPBM binding intensity (ln)
1,GAATGAAAATAAAATTGTACACATATCTATATCTAT [XGTACX_site2642],6.37
2,TTTAATTAGGATAATTGTACTGAACTAAGTATATTT [XGTACX_site1871],5.97
3,AAAAAAAAAAAAAGTTGTACATTATTTTCCTAATTC [XGTACX_site7998],5.93
4,TATATTATATGTATTGCACACCTTCAACAACTACTT [CACACA_site8121],10.5
5,GAAAAATTAATAAATAAACACACATATATATATATA [CACACA_site8835],9.29
6,TCTTTATGTAAGGTCTTCCACAAAAAAATTAAAAAA [TGCATGCA_negctrl_site229],6.21
7,ATATATTATAGAGGTGTGCACTACATACATTATAAT [GTGCAC_site9991],10.1
8,AAATCAACTTATTTTTGTACATATATTTATTATATA [XGTACX_site2925],6.67
9,ATAGAAACATATTGACGTACAGTATAATAATACAGT [XGTACX_site197],6.37
10,ATATATGTACAAATTGTGCGCAATAATTTTGTCTTT,7.42
11,ATTTTCACCTGAACGGTGCATATTTAATTTTAGGTT,9.18
12,ATATATATATTAAGGGGTACGTAAAAAATTGGGAAG [XGTACX_site7322],7.95
13,TCAGTTAATGTATATGTACACACGGGGTGTATATAT [CACACA_site9103],6.8
14,AAATTATATCCCCTTTGTACTTACAGATCTTTATAC [XGTACX_site8163],6.24
15,ATAAATAAATACATATGTACATATATATATATATAT [XGTACX_site7145],9.28
16,ATGTTTTGTAAAATGATTAAATATTAAGATTCAATA [CACACA_negctrl_site1743],5.93
17,CATATACACGAACACACACACATATATATATATATA [CACACA_site4437],9.38
18,TAGTAAATAACAAAAGGAAAAATTAATGAGGCAAAA [TGCATGCA_negctrl_site526],6.69
19,CATCATAGCATTCCTCGTACAAATATAAACATATCA [XGTACX_site2711],6.6

row,Sequence,gcPBM binding intensity (ln)
1,CTTAGAGTATTTAAATGTACACGTTTGTATATGTAT [XGTACX_site1767],6.68
2,TAATGAGGAAAAAGTGTGTTAAGATTTTATAATTTA [GTGCAC_negctrl_site608],5.89
3,TAAAAAAAAATAAATACATGCATATAATACATTATA [TGCATGCA_site518],6.24
4,ATATATATATTAACAATACACACGTGTATACCTTAT [CACACA_site2217],8.24
5,TATCATATAAATACATGTACATATTTGGAAAATAAT [XGTACX_site5373],6.58
6,TGAACATGTTAAAATAAACACACAGCTAAGGTTTTT [CACACA_site7934],6.1
7,AAAATATAAATATATTGTACTGTTATATAATAAAAT [XGTACX_site2132],6.41
8,AATGTGAAATATAAATGTACATAAATATATATATAT [XGTACX_site8710],8.66
9,TAACTATCATGTATTACACACAATATTTATTATAGA [CACACA_site7301],6.63
10,TTTATAAAATTATTTGCATGTAACAATTATAAATTG [TGCATGCA_site1026],6.35
11,TTTTTTTTTCTTTCTCTTTAAATATTAATTAAAAAA [GTGCAC_negctrl_site90],6.22
12,ATAAAATACAGATAAACACACATATAAACACCCATA [CACACA_site5381],7.07
13,CTTTATTTTTTATACACACACAATATGTATAAATAT [CACACA_site7638],7.15
14,TTCTTTTTTCTTTATGGTACGTGTAATATATATCAA [XGTACX_site7960],7.14
15,TACATATTTTTTATGTGTACATATTTTTTATGTGTG [XGTACX_site444],6.22
16,CCCAATAATTAAACAACACACATATATATATGTAAT [CACACA_site3084],7.09
17,AAAAAAATTTGTATCACACACGTATTATAAAAAAAT [CACACA_site4182],6.24
18,TATTAAACTAAATGTAGTACATACACAAACGTAATC [XGTACX_site4905],6.6
19,TATTCGTGCAATAATGGTACACTTATAAATTATTCA [XGTACX_site1430],10.2

# From the supplement of paper PMC11417369
